# Screen size: about 360,000 compounds; about 7,500 (2.1%) were called active. Inconclusive means that the source gave no clear call. Such entries were picked first, then a sample of the others. The call rests on the fitted dose curve; in most records, active means well fitted cell-killing curve with a large enough effect; inconclusive means small, poorly fitted or top-dose-only effect, or effect the other way, or another doubt; inactive means no such curve, though single readings can be large or run the other way. Potencies of inconclusive entries are left out as doubtful fits.
# Experiment: qHTS for induction of synthetic lethality in tumor cells producing 2HG: qHTS for the HT-1080-IDH1KD cell line;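 on activity, negative = toxicity: 0% = DMSO wells and -100% = cell-free medium wells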
# Settings: HT-1080 IDH1 knockdown viability, ATP luminescence, 48 h; activity, negative = toxicity: at 46.1 µM (top of the series) unless noted
# Method in brief: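 Using the IDH1-knockdown HT-1080 line run in the same batch and compound series as the NT line, viability after 48 h at 37 °C was determined by CellTiter-Glo luminescence and expressed as % activity.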
# Potency means the concentration at half of the fitted maximal effect; tags describe the fitted curve by direction and shape.
SMILES,Potency,"activity, negative = toxicity"
O=C(/C=C/c1ccc(S(=O)(=O)NCc2ccco2)cc1)NCc1cccc(Cl)c1,"inconclusive [cytotoxic, partial curve]",
Cc1ccc(C(C)C)c(OCC(=O)Nc2ccc3c(c2)nc(CCN2CCCCC2)n3C)c1,active: 16.4 µM,
COc1ccc(N(CCCN2C(=O)c3cccc4cccc(c34)C2=O)C(=O)c2cccs2)cc1,,inactive: -21.8%
CCCCc1c(-c2ccc(OC)c(OC)c2)ncn1CCc1ccccc1OC,active: 11.6 µM,
CC1(C)N=C(N)N=C(N)N1c1cccc(CC(=O)Nc2ccccc2)c1,active: 3.26 µM,
CCOC(=O)C1CCc2c(ccc3ccccc23)N1CCC#N (stereo unspecified),,inactive: -25.7%
O=C(Nc1nc(-c2cccs2)c(C(=O)C(F)(F)F)s1)c1ccccc1,"inconclusive [cytotoxic, single point]",
CCC(C)Nc1cc(C)c(C#N)c2nc3ccccc3n12 (stereo unspecified),,inactive: -22%
CCn1ncc(CN2CCCC(C(=O)Nc3cccc(-c4cc5ccccc5[nH]4)c3)C2)c1C (stereo unspecified),"inconclusive [cytotoxic, single point]",
CCOc1ccc(N(C(=O)c2snc(C(N)=O)c2N)C(C(=O)NCC2CCCO2)c2c[nH]c3ccccc23)cc1 (stereo unspecified),"inconclusive [cytotoxic, partial curve]",
Cc1ccc(NC(=O)Cc2nnc(SCC(=O)c3ccc(Br)cc3)n2C)cc1,active: 11.2 µM,
CCCc1c(CC)c(=N)c2ccccc2n1C,"inconclusive [cytotoxic, single point]",
CC(=O)c1cccc(NC(=O)c2ccc3c(c2)CCN3S(=O)(=O)c2ccccc2)c1,,inactive: -9.59%
Cc1ccccc1C(=O)NNC(=S)NC(=O)c1ccccc1,"inconclusive [cytotoxic, partial curve]",
CCOC(=O)c1ccc(Nc2nc(=O)c3cccnc3s2)cc1,active: 2.24 µM,
Cc1cc(C(=O)N/N=C/c2cc(Cl)cc([N+](=O)[O-])c2O)c2ccccc2n1,"inconclusive [cytotoxic, single point]",
Cc1cccc(NC(=O)CN2CCN(C(=O)CNC(=O)c3ccc(-c4ccccc4)cc3)CC2)c1C,active: 10.3 µM,
NC(=S)N/N=C/c1c(O)ccc2ccccc12,,inactive: -0.617%
O=[N+]([O-])c1cccc(/C=N/Nc2cc(N3CCOCC3)ncn2)c1,,inactive: 13.2%
CCCc1nc2c3ccccc3ccn2c1Cc1ccc(OC)cc1C,"inconclusive [cytotoxic, single point]",
COc1nc(NC2CCCCC2)nc(N2CCCCCC2)n1,"inconclusive [cytotoxic, single point]",
O=C(NNc1ccccc1)C(CCO)C(=O)NNc1ccccc1,active: 6.51 µM,
COc1ccc(NC(=O)CCNC(=O)c2ccco2)cc1OC,,inactive: 12.6%
COc1ccc(NC(=O)C2CCN(S(=O)(=O)c3ccc4c(c3)NC(=O)C(C)S4)CC2)cc1 (stereo unspecified),"inconclusive [cytotoxic, partial curve]",

SMILES,Potency,"activity, negative = toxicity"
Nc1cc2c(cc1Br)[nH]c(=O)c1ccccc12,"inconclusive [cytotoxic, single point]",
Cc1ccc(OS(=O)(=O)c2ccc(-c3csc(C)n3)s2)c(C)c1,"inconclusive [cytotoxic, single point]",
O=C(Nc1cccc(Cl)c1)Nc1ccccc1NS(=O)(=O)c1cccs1,"inconclusive [cytotoxic, single point]",
CCOC(=O)N1CCN(C(=O)CSCC(=O)Nc2nc(-c3cccs3)cs2)CC1,"inconclusive [cytotoxic, single point]",
NNC(=O)c1[nH]c2ccc([N+](=O)[O-])cc2c1-c1ccccc1,active: 3.66 µM,
COc1cc(N2C(=O)C=CC2=O)c(OC)cc1Cl,"inconclusive [cytotoxic, single point]",
O=C(O)CCCCCn1c(SCc2cc(=O)n3ccccc3n2)nc2ccsc2c1=O,"inconclusive [cytotoxic, partial curve]",
Cc1ccc(C(=O)C[n+]2cc(-c3ccccc3)n3c2CCCCC3)cc1,"inconclusive [cytotoxic, partial curve, poor fit]",
O=C1N[C@H](Cc2ccccc2)COC(=O)[C@H](Cc2ccc(F)cc2)CC/C=C/C[C@@H]1CC(=O)N(CCO)Cc1ccccc1,"inconclusive [cytotoxic, single point]",
COc1ccc(/C=N/Nc2nnc(-c3ccccc3)c(=O)[nH]2)cc1,active: 13 µM,
COc1ccccc1N1CCN(C(=O)c2c(-c3ccccc3Cl)noc2C)CC1,"inconclusive [cytotoxic, single point]",
Cc1ccc(/C=N/NC(=O)c2c[nH]c3ccccc23)s1,,inactive: -1.94%
COc1ccccc1C(=O)NCCC(=O)Nc1cccnc1,"inconclusive [rising, partial curve]",
CC(=O)N(CCN(C(C)=O)c1ccccc1)c1ccccc1,,inactive: -7.03%
CCCC(=O)N(CCc1ccc(OC)cc1)Cc1nc2ccccc2c(=O)[nH]1,"inconclusive [cytotoxic, single point]",
COc1cc(C(=O)NCC(c2ccco2)N2CCCC2)ccc1OCc1ccc(Cl)cc1Cl (stereo unspecified),"inconclusive [cytotoxic, single point]",
O=C(NC1CCCCC1)C(c1ccc2ncccc2c1)N(Cc1cccs1)C(=O)c1cccs1 (stereo unspecified),"inconclusive [cytotoxic, full curve]",
CCOC(=O)c1sc(C)c2c1NC(C)(c1cccs1)NC2=O (stereo unspecified),"inconclusive [cytotoxic, single point]",
CC1CCCN(S(=O)(=O)c2ccc(C(=O)Nc3nnc(-c4ccccc4Cl)o3)cc2)C1 (stereo unspecified),"inconclusive [cytotoxic, full curve]",
CC1(C(=O)NCc2ccccc2Br)CCN1Cc1ccc(-c2ccccc2)o1 (stereo unspecified),"inconclusive [cytotoxic, single point]",
O=C(NCC1CCCC(CNC(=O)N2CCc3ccccc32)C1)N1CCc2ccccc21 (stereo unspecified),active: 20 µM,
CCOc1cc(NS(=O)(=O)c2ccc(NC(C)=O)cc2)c(OCC)cc1NC(=O)C(C)C,"inconclusive [cytotoxic, single point]",
CCN(CC)CCNC(=O)C(=O)NCC1OCCN1S(=O)(=O)c1ccc2c(c1)OCCO2 (stereo unspecified),"inconclusive [rising, single point]",
COc1ccc(S(=O)(=O)N2CCCCC2c2cc(C(=O)Nc3ccc(F)c(Cl)c3)no2)cc1 (stereo unspecified),"inconclusive [cytotoxic, single point]",

SMILES,Potency,"activity, negative = toxicity"
Cc1ccc(C)c(NC(=O)CCC(=O)OC(C(=O)c2ccccc2)c2ccccc2)c1 (stereo unspecified),,inactive: 8.87%
COC(=O)c1sccc1NS(=O)(=O)c1ccc(OC)cc1,"inconclusive [cytotoxic, full curve]",
CC1C(=O)N(Cc2cn(Cc3ccco3)nn2)CCS(=O)(=O)N1Cc1ccc(-c2ccccc2Cl)cc1 (stereo unspecified),"inconclusive [cytotoxic, single point]",
CC1(c2ccccc2)CC(C)(C)N(C(=O)C2CCCO2)c2ccccc21 (stereo unspecified),"inconclusive [cytotoxic, single point]",
Cc1ccc(N(CC(=O)N2CC(=O)Nc3ccccc32)S(=O)(=O)c2ccc3c(c2)OCCO3)cc1,,inactive: -0.0998%
O=C(CSc1ccc(-c2ccccn2)nn1)Nc1ccc(F)c(F)c1,"inconclusive [cytotoxic, single point]",
CCc1nnc(NC(=O)CSc2nnc(-c3cc4ccccc4cc3O)n2CC)s1,,inactive: -14%
O=C(COC(=O)Cc1ccsc1)Nc1ccc(Cl)cc1F,,inactive: 12.3%
OCc1cn(-c2ccccc2)nc1-c1ccco1,"inconclusive [cytotoxic, single point]",
O=[N+]([O-])c1ccc(N/N=C2\CC3CC=CC23)cc1 (stereo unspecified),"inconclusive [cytotoxic, partial curve, poor fit]",
Cc1cccc(N2CCN(C(=O)c3c(-c4ccccc4)noc3C)CC2)c1C,active: 1.3 µM,
COc1cc(/C(C#N)=C/c2ccccc2)c([N+](=O)[O-])cc1OC,,inactive: -4.03%
CCn1ccnc1CN1CCCC(C(=O)c2ccc3cc(OC)ccc3c2)C1 (stereo unspecified),"inconclusive [cytotoxic, single point]",
O=C(NCCO)c1cccc(Nc2nc(-c3ccccc3)c3cc(Cl)ccc3n2)c1,"inconclusive [cytotoxic, single point]",
Cc1c(C(=O)O)c(C(=O)O)c2n1CCS2,,inactive: 12.4%
COc1ccc(NC(=O)c2cc(Br)ccc2Cl)c(OC)c1,,inactive: -5.19%
COc1cccc(OCCOCC(O)CN2CCN(Cc3ccc(Cl)cc3)CC2)c1 (stereo unspecified),,inactive: -9.16%
C=CCN1C(=O)c2ccc(C(=O)OCC(=O)N(CC)c3c(N)n(Cc4ccccc4)c(=O)[nH]c3=O)cc2C1=O,,inactive: -1.99%
Cc1cc(Sc2nnc(N)s2)c2ccccc2n1,"inconclusive [cytotoxic, single point]",
c1ccc(CN2CCN(c3ncnc4c3[nH]c3ccccc34)CC2)cc1,"inconclusive [cytotoxic, partial curve]",
O=C1OC(/C(=C\Nc2cc(Cl)ccc2O)[N+](=O)[O-])c2ccccc21 (stereo unspecified),"inconclusive [cytotoxic, partial curve]",
COc1cccc(CNc2cccc3cccnc23)c1O,"inconclusive [cytotoxic, partial curve]",
COc1cc(C(=O)C(=O)N2CCN(c3ccc(C)cc3)CC2)cc2ccccc12,"inconclusive [cytotoxic, single point]",

# Reference: PubChem BioAssay AID686971 (National Center for Advancing Translational Sciences (NCATS), 2013)
